Laboratory results reported in PubChem BioAssay AID1347428 (National Center for Advancing Translational Sciences (NCATS), 2020).
Among all 91,000 compounds or so, about 290 (0.32%) were called active. This list was built around the results that the source calls inconclusive (neither active nor inactive); the mix of calls is not that of the screen. Calls follow the shape of the dose curve; as a rule, active = well fitted inhibition curve with a large enough effect; inconclusive = small, poorly fitted or top-dose-only effect; inactive = no such curve, though single readings can be large or run the other way. A potency beside an inconclusive call is a rough fit, not a confirmed value.

target: Single-stranded DNA cytosine deaminase (Homo sapiens) (UniProt Q9GZX7); assay: Primary qHTS assay for inhibitors of Activation Induced Cytidine Deaminase (AID): AID signal; conditions: AID deamination FRET fluorescence, UDG-coupled, 4 h; series mostly up to 115 µM; also: nearly all actives have a fitted effect of over 25% in size
Sequence of UniProt Q9GZX7 (Q9GZX7 whole entry, looked up): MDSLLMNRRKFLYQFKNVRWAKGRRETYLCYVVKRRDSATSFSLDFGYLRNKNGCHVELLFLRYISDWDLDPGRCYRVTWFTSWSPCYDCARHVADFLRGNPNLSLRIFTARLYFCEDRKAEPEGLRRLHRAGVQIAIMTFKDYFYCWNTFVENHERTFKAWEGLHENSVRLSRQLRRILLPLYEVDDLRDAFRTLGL
Potency is read from the fitted curve at half-maximal effect; tags tell the direction and shape of the fitted curve.

SMILES	Potency
O=C(Nc1ccc2c(c1)Cc1ccccc1-2)c1ccc2c(c1)OCO2	inactive
COc1ccc(CNc2nc(-c3ccc(OC)c(OC)c3)cc(C(F)(F)F)n2)cc1	inconclusive: 70.8 µM [inhibitor, partial curve, poor fit]
CCOc1ccc(C(=O)CCC(=O)OCC(=O)c2ccccc2Br)cc1	inactive
Cc1ccc(C2c3[nH]c4ccccc4c3CCN2C(=O)c2ccc(N(C)C)cc2)cc1 (stereo unspecified)	inconclusive: 39.8 µM [inhibitor, partial curve, poor fit]
O=C(CCOc1ccccc1)N(Cc1cccnc1)c1nc2c(Cl)cccc2s1	inconclusive: 56.2 µM [inhibitor, partial curve, poor fit]
Cc1ccc(CCNC(=O)CCSCc2ccccc2F)cc1	inconclusive: 79.4 µM [inhibitor, single point]
COc1cccc(NC(=O)c2sc3nc(C)c(C(=O)Nc4ccc(C)cc4C)c(-c4ccc(Br)cc4)c3c2N)c1	inconclusive: 50.1 µM [inhibitor, partial curve, poor fit]
Cc1ccc(C)c(N2CCN(C(=O)C3CCN(Cc4nc(-c5cccc(Cl)c5)oc4C)CC3)CC2)c1	inactive
Cc1cc(Nc2cccc(F)c2)n2nc(-c3ccco3)nc2n1	inconclusive: 89.1 µM [inhibitor, partial curve, poor fit]
COc1ccc(OC)c(NC(=O)Cn2cc(C(=O)c3cccs3)c3ccccc32)c1	inconclusive: 39.8 µM [inhibitor, single point]
COc1ccc(-c2ccc(=O)n(CC(=O)Nc3ccc(N(C)C)cc3)n2)cc1	inconclusive: 89.1 µM [inhibitor, single point]
COc1ccc(/C=C/C(=O)Nc2ccc(Cl)c(Cl)c2)cc1OC	inconclusive: 35.5 µM [inhibitor, full curve]
CC1=C(c2ccc(C)c(C)c2)S(=O)(=O)N(Cc2ccc(C(=O)NCc3ccc(C)cc3)cc2)C1=O	inconclusive: 3.55 µM [inhibitor, full curve, poor fit]
CCOC(=O)C1=C(CN(Cc2ccco2)C2CCCC2)NC(=O)NC1c1ccc(C)cc1 (stereo unspecified)	inconclusive: 28.2 µM [inhibitor, partial curve, poor fit]
CCN(CC)c1nc2c(S(=O)(=O)c3ccc(C)cc3)nnn2c2ccsc12	inconclusive: 2.82 µM [inhibitor, full curve, poor fit]
CCC(C)NC(=O)c1sc2nc(C)c(C(=O)Nc3ccc(C)cc3C)c(-c3ccc(Br)cc3)c2c1N (stereo unspecified)	inconclusive: 20 µM [inhibitor, partial curve, poor fit]
